Assay results from PubChem BioAssay (NCI).
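Protocol summary: plate cells (96-well), add compound at 5 concentrations, incubate 48 h, interpolate endpoints linearly. Here, GI50 denotes the concentration required for 50% inhibition of growth. TGI denotes the concentration required for complete inhibition of growth.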

System: NCI-H322M lung
Test: NCI-60 cell line screen, 48 h

Compared with `Cn1cc(-c2cc(N)n3nc(-c4c[nH]c5ccc(Cl)cc45)cc3n2)c2cccnc21`, `O=C1CCC(N2C(=O)c3cccc(NCCCCCC(=O)N4CCN(c5ccc6nc7c(nc6c5C(F)(F)F)C(=O)c5ncccc5C7=O)CC4)c3C2=O)C(=O)N1` (stereo not drawn) is 12-fold lower in GI50: 1910 nM for the first, 165 nM for the second.

First: CCCCCCCCCCCCCCCCCCCC(=O)NCCc1c[nH]c2ccc(OC(=O)CCCC(=O)OCCOOCCOOCCOOCCOOCCOOCCOOCCOOCCOOCCOOCCOOCCOOCCOC)cc12
Second: CN1CCN(C(=O)CCN(C(=O)Oc2cc3c(c4ccccc24)[C@H](CCl)CN3C(=O)c2cc3cc(OCCCN4CCC4)ccc3[nH]2)[C@H]2CCSSC2)CC1
The GI50 of the first is higher: over 100000 nM for the first, 191 nM for the second.

First: Cn1cc(-c2cc(N)n3nc(-c4c[nH]c5ccc(Cl)cc45)cc3n2)c2cccnc21
Second: O=C1CCC(N2C(=O)c3cccc(NCCCCCC(=O)N4CCN(c5ccc6nc7c(nc6c5C(F)(F)F)C(=O)c5ncccc5C7=O)CC4)c3C2=O)C(=O)N1 (stereo not drawn)
The TGI of the first is 8.3-fold higher: 4800 nM for the first, 576 nM for the second.

Going from `CCCCCCCCCCCCCCCCCCCC(=O)NCCc1c[nH]c2ccc(OC(=O)CCCC(=O)OCCOOCCOOCCOOCCOOCCOOCCOOCCOOCCOOCCOOCCOOCCOOCCOC)cc12` to `CN1CCN(C(=O)CCN(C(=O)Oc2cc3c(c4ccccc24)[C@H](CCl)CN3C(=O)c2cc3cc(OCCCN4CCC4)ccc3[nH]2)[C@H]2CCSSC2)CC1`, the TGI falls from over 100000 nM to 692 nM.
